Results: a collection of fitness landscapes (doi:10.1126/science.1257360)
The list shows a part of the results.

B1: PhoQ; a variant is named by its letters at X, in order, P23837 (parent)
chain: MKKLLRLFFPLSLRVRFLLATAAVVLVLSLAYGMVALIGYSVSFDKTTFRLLRGESNLFYTLAKWENNKLHVELPENIDKQSPTMTLIYDENGQLLWAQRDVPWLMKMIQPDWLKSNGFHEIEADVNDTSLLLSGDHSIQQQLQEVREDDDDAEMTHSVAVNVYPATSRMPKLTIVVVDTIPVELKSSYMVWSWFIYVLSANLLLVIPLLWVAAWWSLRPIEALAKEVRELEEHNRELLNPATTRELTSLVRNLNRLLKSERERYDKYRTTLTDLTHSLKTPLXXLQXXLRSLRSEKMSVSDAEPVMLEQISRISQQIGYYLHRASMRGGTLLSRELHPVAPLLDNLTSALNKVYQRKGVNISLDISPEISFVGEQNDFVEVMGNVLDNACKYCLEFVEISARQTDEHLYIVVEDDGPGIPLSKREVIFDRGQRVDTLRPGQGVGLAVAREITEQYEGKIVAGESMLGGARMEVIFGRQHSAPKDE

Variants of: B1
Assay: enrichment ratio after two sorts for PhoP signalling (ratio (wild type AVST 3.29)); higher = more functional
Conditions: with PhoP (E. coli)

Variant | enrichment ratio
PQSD | ≤ 0.25
RTDV | ≤ 0.25
TKID | ≤ 0.25
RLMC | ≤ 0.25
STWP | ≤ 0.25
HYAS | ≤ 0.25
RQYH | ≤ 0.25
PIKY | ≤ 0.25
LCRE | ≤ 0.25
LEAK | ≤ 0.25
DYGR | ≤ 0.25
HPSI | ≤ 0.25
YGTN | ≤ 0.25
VPNH | ≤ 0.25
CMLF | 5.01
ERIR | ≤ 0.25
YCNR | ≤ 0.25
ACSV | 8.72
QGWN | 16.6
EFKH | ≤ 0.25
TPTV | ≤ 0.25
ALPT | ≤ 0.25
METH | 8.69
VFWT | ≤ 0.25

Variant | enrichment ratio
ADSC | ≤ 0.25
FCHA | ≤ 0.25
KANN | ≤ 0.25
PMQE | ≤ 0.25
NDLK | ≤ 0.25
GCNN | ≤ 0.25
SVWR | ≤ 0.25
KMVV | ≤ 0.25
IEDS | ≤ 0.25
RTYY | ≤ 0.25
DQSS | ≤ 0.25
MEEV | ≤ 0.25
KRVA | ≤ 0.25
FEKM | ≤ 0.25
PQCG | ≤ 0.25
CNFT | ≤ 0.25
NTIS | ≤ 0.25
LKEK | ≤ 0.25
QLSE | ≤ 0.25
YGRL | ≤ 0.25
RRGT | ≤ 0.25
TKGP | ≤ 0.25
GWFR | ≤ 0.25
YRWR | ≤ 0.25

Variant | enrichment ratio
FSEI | ≤ 0.25
CFVG | ≤ 0.25
KFRA | ≤ 0.25
IAHS | ≤ 0.25
AHLH | ≤ 0.25
NFKH | ≤ 0.25
FRMI | ≤ 0.25
FIFL | ≤ 0.25
RVLP | ≤ 0.25
PMQH | ≤ 0.25
IGEN | ≤ 0.25
ARTR | ≤ 0.25
HHFC | ≤ 0.25
VGFP | ≤ 0.25
VIYP | ≤ 0.25
QFVE | ≤ 0.25
LYAF | ≤ 0.25
RLQS | ≤ 0.25
MSII | 7.57
DAVC | ≤ 0.25
DRES | ≤ 0.25
SGEW | ≤ 0.25
PFFG | ≤ 0.25
VEGS | ≤ 0.25

Variant | enrichment ratio
HYKF | ≤ 0.25
NYYG | ≤ 0.25
RPTS | ≤ 0.25
ILFL | ≤ 0.25
PRTD | ≤ 0.25
TTVL | 0.943
YQYS | ≤ 0.25
TNCT | 1.63
HQAL | ≤ 0.25
TAYQ | 10.6
HHQM | ≤ 0.25
MEEK | ≤ 0.25
TFAL | 6.11
HPAT | ≤ 0.25
WAPI | ≤ 0.25
GDFL | ≤ 0.25
QFSL | ≤ 0.25
NFLD | ≤ 0.25
GNDW | ≤ 0.25
WPYL | 0.766
DATQ | ≤ 0.25
WQQL | ≤ 0.25
IHME | ≤ 0.25
KNFF | ≤ 0.25

Variant | enrichment ratio
RNAI | ≤ 0.25
LGKY | ≤ 0.25
LEYV | 3.72
DSSA | ≤ 0.25
MEMK | ≤ 0.25
IICM | ≤ 0.25
GETL | 6.34
DNNM | ≤ 0.25
LRQG | ≤ 0.25
QESD | ≤ 0.25
SIPA | 0.817
STYE | ≤ 0.25
DIFW | ≤ 0.25
WGDY | ≤ 0.25
GMNK | ≤ 0.25
SECH | 8.6
FVTV | ≤ 0.25
WGSQ | ≤ 0.25
EGMR | ≤ 0.25
PKWG | ≤ 0.25
DHYF | ≤ 0.25
YNRI | ≤ 0.25
AHRF | ≤ 0.25
YRPT | ≤ 0.25

Variant | enrichment ratio
MWIY | ≤ 0.25
ERYI | ≤ 0.25
TTPP | ≤ 0.25
VKRI | ≤ 0.25
ESVP | ≤ 0.25
NHHC | ≤ 0.25
QGWL | 2.29
QYMF | ≤ 0.25
ENLD | ≤ 0.25
VYKV | ≤ 0.25
PDIW | ≤ 0.25
TNWD | ≤ 0.25
VRWI | ≤ 0.25
AHFL | ≤ 0.25
RISY | ≤ 0.25
MDCI | ≤ 0.25
FGWI | ≤ 0.25
HIII | 6.08
FRPR | ≤ 0.25
HNIL | ≤ 0.25
IKMQ | ≤ 0.25
NREY | ≤ 0.25
LCKH | ≤ 0.25
RYLW | ≤ 0.25

Variant | enrichment ratio
QLFE | ≤ 0.25
GEIY | 23
SSIM | 18.4
LHYC | ≤ 0.25
MMMR | ≤ 0.25
TPFT | ≤ 0.25
WTPQ | ≤ 0.25
WVFV | ≤ 0.25
KVWA | ≤ 0.25
DIAA | ≤ 0.25
PCDT | ≤ 0.25
YKAV | ≤ 0.25
EFVS | ≤ 0.25
ILKL | ≤ 0.25
NDTR | ≤ 0.25
ISGG | ≤ 0.25
PDAC | ≤ 0.25
KGNL | ≤ 0.25
RVCP | ≤ 0.25
SFFN | ≤ 0.25
QLVC | ≤ 0.25
LHIV | ≤ 0.25
FSMS | 1.68
LLHQ | ≤ 0.25

Variant | enrichment ratio
SMCA | 15.3
HDKA | ≤ 0.25
RCDR | ≤ 0.25
PGGK | ≤ 0.25
DHKN | ≤ 0.25
ADEL | ≤ 0.25
AYDN | ≤ 0.25
NVFA | ≤ 0.25
WLLK | 0.74
SCKH | ≤ 0.25
PDIM | ≤ 0.25
TSQG | 9.59
SRAD | ≤ 0.25
DDEM | ≤ 0.25
LVDF | ≤ 0.25
VHQW | ≤ 0.25
DCSF | ≤ 0.25
MSQQ | ≤ 0.25
NHMN | ≤ 0.25
FSPN | ≤ 0.25
VTHI | ≤ 0.25
TLIV | ≤ 0.25
SQFD | ≤ 0.25
AGCD | ≤ 0.25

Variant | enrichment ratio
VHWH | ≤ 0.25
VNPE | ≤ 0.25
YVIP | ≤ 0.25
ESGD | ≤ 0.25
MEIR | ≤ 0.25
SMHM | ≤ 0.25
YEPT | ≤ 0.25
LSWH | 0.301
WRGH | ≤ 0.25
WNHI | ≤ 0.25
TCNI | 2.07
NCSS | ≤ 0.25
DQYW | ≤ 0.25
VCML | 10
EGGQ | ≤ 0.25
VWIQ | ≤ 0.25
FEDC | ≤ 0.25
SMHC | ≤ 0.25
FFKC | ≤ 0.25
LGEG | ≤ 0.25
LLYQ | ≤ 0.25
QKWS | ≤ 0.25
IEAL | ≤ 0.25
GFYQ | ≤ 0.25

Variant | enrichment ratio
GFSS | ≤ 0.25
VSMF | ≤ 0.25
VPAD | ≤ 0.25
VRMS | ≤ 0.25
GACW | ≤ 0.25
TYPD | ≤ 0.25
DNTA | ≤ 0.25
TEGR | ≤ 0.25
NSTK | ≤ 0.25
TNQP | ≤ 0.25
DGVD | ≤ 0.25
SQSA | 3.01
LQNF | ≤ 0.25
KAWN | ≤ 0.25
RCEH | ≤ 0.25
QPDT | ≤ 0.25
LDEW | ≤ 0.25
PLAH | ≤ 0.25
SIVI | 2.79
ASYI | ≤ 0.25
YSRL | ≤ 0.25
VING | ≤ 0.25
WECF | ≤ 0.25
EYHR | ≤ 0.25

Variant | enrichment ratio
KVKW | ≤ 0.25
GWMP | ≤ 0.25
KKTE | ≤ 0.25
PFGA | ≤ 0.25
IQWV | ≤ 0.25
SWVE | ≤ 0.25
AHCR | ≤ 0.25
MYGR | ≤ 0.25
SFNL | ≤ 0.25
LTMF | 0.436
ISPC | ≤ 0.25
MFWY | ≤ 0.25
GWYP | ≤ 0.25
SMHD | ≤ 0.25
TMRP | ≤ 0.25
PCQD | ≤ 0.25
RPRS | ≤ 0.25
QVCW | ≤ 0.25
VPFC | ≤ 0.25
REVQ | ≤ 0.25
VTTF | ≤ 0.25
NEEG | ≤ 0.25
RYCL | ≤ 0.25
IAYL | ≤ 0.25

Variant | enrichment ratio
WCLT | ≤ 0.25
GGTF | ≤ 0.25
SKAD | ≤ 0.25
PLIP | ≤ 0.25
HHIS | ≤ 0.25
WWMR | ≤ 0.25
IHCQ | ≤ 0.25
MDRC | ≤ 0.25
WQNK | ≤ 0.25
GQMS | ≤ 0.25
LCFI | ≤ 0.25
TPMR | ≤ 0.25
AIPH | ≤ 0.25
PARV | ≤ 0.25
WINF | ≤ 0.25
ISKI | ≤ 0.25
FGFL | 0.333
GRYS | ≤ 0.25
FSES | ≤ 0.25
HTFF | ≤ 0.25
STRI | ≤ 0.25
PYTQ | ≤ 0.25
GGFF | ≤ 0.25
MSFK | ≤ 0.25

Variant | enrichment ratio
VEGW | ≤ 0.25
ITCC | ≤ 0.25
IQAD | ≤ 0.25
TYSK | ≤ 0.25
MYMP | ≤ 0.25
GCLI | 7.28
FVRS | ≤ 0.25
HKYF | ≤ 0.25
TCDC | ≤ 0.25
CIFF | ≤ 0.25
YKIM | ≤ 0.25
MQNR | ≤ 0.25
KIDV | ≤ 0.25
LRIR | ≤ 0.25
PGEI | ≤ 0.25
KADA | ≤ 0.25
HRTC | ≤ 0.25
LMQD | ≤ 0.25
